Results on one compound are retold here after PMC5862788 (Antiviral therapy, 2018).

The conditions of data set [1]: population estimate (R.S.E. %), HCV-infected individuals.
The nature of data set [2]: clinical. Particulars: human, in vivo; for half-life: half-life t1/2 = ln(2)/ke.
The subject of data set [3] is HCV genotype 1b. Briefly: animal or person. The conditions noted are these: Hepatitis C virus, GETYPE1B, in Homo sapiens.

The structures appear in SMILES notation. ≈ marks a conversion by molar mass, not a printed value. Where “and” joins values, the source holds several entries; their conditions need not be identical. Equal values may be shown once.

Consider `CS(=O)(=O)Nc1ccc2c(c1)S(=O)(=O)N=C(C1=C(O)[C@@H]3[C@H]4CC[C@H](C4)[C@@H]3N(Cc3ccc(F)cc3)C1=O)N2` [setrobuvir], for which, in data set [1], the “k12 (transition rate central to peripheral compartment)” value was 0.12 /hr and 0.12 (28) /hr; the “k21 (transition rate peripheral to central compartment)” value is 0.071 /hr and 0.07 (11) /hr; the “ka (first-order absorption rate)” value was 0.26 hr^−1 and 0.26 (19) hr^−1. In addition, the “Tlag (lag-time)” value in data set [1] (oral) was 1.68 hr and 1.68 (8) hr. In data set [2], this compound gave a Vd of 5.11 L and a k el of 1.75e-05 s⁻¹. The compound further showed a half-life in data set [2] (HCV-infected patients) of 11.4 h. This compound also gave a half-life in data set [2] (healthy volunteers) of 10.2 h. The compound further registered an EC50 in data set [3] of 8.45 ng/mL (≈ 0.0151 µM).
